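Five compound concentrations were applied to cells in 96-well plates for 48 hours; endpoints were derived by simple linear interpolation of the resulting dose-response curve. GI50 = concentration required for 50% inhibition of growth. At the TGI there is no net growth.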
Test system: NCI-H322M lung
Assay: growth of human tumour cells (NCI), 48 h

Row | Structure (SMILES) | GI50 [µM] | TGI [µM]
1 | CCN(CC)CCOc1ccc(C2=C(c3ccccc3)CCc3cc(OC)ccc32)cc1 | 3.61 | 14.3
2 | COc1ccc(C[C@H]2COC(=O)[C@@H]2Cc2cc(OC)c(OC)c(OC)c2)cc1OC |  | > 100
3 | O=C(CC(C(=O)O)N1CCOCC1)c1ccccc1 (stereo not drawn) |  | > 100
4 | CCC1NCC(=O)c2c1[nH]c1ccccc21 (stereo not drawn) |  | > 100
5 | COC(=O)C1(Cc2ccccc2)Cc2ccccc2C1=O (stereo not drawn) |  | > 100
6 | COc1ccc(N=C2NN=C(c3c[nH]c4ccccc34)CS2)cc1OC | 21.6 | > 100
7 | COc1cc(/C=C2\C[C@H]3[C@@H]4CC=C5C[C@@H](N6CCCC6)CC[C@]5(C)[C@H]4CC[C@]3(C)[C@H]2OC(C)=O)cc(OC)c1OC |  | 28.7
8 | CC(C)(C)c1ccc(S(=O)(=O)N[C@H]2CC[C@H]3[C@@H]4CCc5cc(O)ccc5[C@H]4CC[C@]23C)cc1 | 4.53 | 16.3
9 | COC(=O)c1ccc(OCc2ccc3nc(-c4ccccc4)c(Cl)nc3c2)cc1 |  | > 100
10 | Clc1ncc(C(Cl)(Cl)Cl)nc1-c1ccccc1 |  | 3.37
11 | C#Cc1cccc(Nc2ncnc3ccc(-c4cncc(NS(C)(=O)=O)c4)cc23)c1 | 0.411 | 4.41
12 | CCC1(N2C(=O)c3c(F)c(F)c(F)c(F)c3C2=O)C(=O)NC(=O)N(c2ccccc2)C1=O (stereo not drawn) | 23.5 | 43
13 | CN1CC(C(=O)NC2(C)OC3(O)C4CCCN4C(=O)C(Cc4ccccc4)N3C2=O)C=C2c3cccc4[nH]cc(c34)CC21 (stereo not drawn) |  | > 100
14 | CCOC(=O)Cc1nc2c(=O)[nH]cnc2n1C1OC(COC(C)=O)C(OC(C)=O)C1OC(C)=O (stereo not drawn) |  | > 100
15 | N#Cc1nnc2c3c(-c4ccc(Cl)cc4)c(C#N)c(=O)[nH]c3nn2c1N |  | 33.7
16 | C=CC(C)(C)n1cc(C2=C(O)C(=O)C(c3cn(C(C)(C)C=C)c4ccccc34)=C(OC(C)=O)C2=O)c2ccccc21 |  | 2.31
17 | COc1ccccc1OC/C(N=Cc1ccncc1)=N/NC(=O)c1ccncc1 |  | > 100
18 | C=CC[PH+](c1ccccc1)c1ccccc1.C=CC[PH+](c1ccccc1)c1ccccc1.[Cl][Pt][Cl] | 17.8 | 45.8
19 | C=C1C(=O)C[C@@]23CCC[C@@]12CC(O)C3 (stereo partly drawn) |  | > 80.3
20 | CC(=O)C1=C(O)/C(=C\c2ccco2)OC1=O |  | > 10
21 | COc1cc(CC(=O)c2ccc3c(c2)OCO3)cc(OC)c1OC |  | > 100
22 | COc1cc2c(cc1OC)C1Cc3ccccc3CN1CCC2 (stereo not drawn) |  | > 100
23 | O=C(CCCN1CCc2[nH]c3cc(F)ccc3c2C1)c1ccc(F)cc1 |  | 25.4
24 | CN1CCN(C(=S)SCN2C(=O)c3ccccc3S2(=O)=O)CC1 | 96.4 | > 100

Row | Structure (SMILES) | GI50 [µM] | TGI [µM]
25 | COc1ncnc2c(-c3ccco3)cn(COCc3ccccc3)c12 | > 50 | > 50
26 | CN(C)CCNC(=O)c1cccc2c(NC(CS)C(=O)O)c3ccccc3nc12 (stereo not drawn) |  | 77.9
27 | C=C1c2nc3ccccc3n2C=C(c2ccccc2)N1c1ccc(OC)cc1 |  | > 100
28 | COc1cc(C2S/C(=C/c3ccccc3)C(=O)N2c2ccc(Cl)cc2)cc(OC)c1OC (stereo not drawn) |  | > 100
29 | O=c1c2cc(F)ccc2sc2c(NCCCN3CCCC3)nc3ccccc3c12 | 2.35 | 6.68
30 | CCOC(=O)Cc1csc(NC(=O)C(OC(=O)c2ccc(N)cc2)c2ccccc2)n1 (stereo not drawn) | 59.6 | > 100
31 | CCCCCCCCC(=O)NCCCNCCCNC(=O)CCCCCCCC |  | 21.3
32 | CSc1nc2c(ncn2C2OCC(O)C(O)C2O)c(=O)[nH]1 (stereo not drawn) |  | > 100
33 | CCc1nc(N)nc(N)c1-c1ccc([N+](=O)[O-])c(Cl)c1 |  | > 100
34 | CC(C)(C)NCCC(O)c1cc(C(F)(F)F)nc2c(C(F)(F)F)cccc12 (stereo not drawn) |  | 25
35 | CCOC(=N)CC(=O)NC(C)c1ccccc1 (stereo not drawn) |  | > 100
36 | O=[N+]([O-])O.[NH-]C1CCCCC1[NH-].[NH-]C1CCCCC1[NH-].[NH-]C1CCCCC1[NH-].[OH-].[OH-].[OH-].[Pt+4].[Pt+4].[Pt+4] (stereo not drawn) | 0.596 | 
37 | CCN(CC)c1ccc(C(=C2C=CC(=[N+](CC)CC)C=C2)c2ccccc2)cc1 |  | 0.912
38 | CC[C@@]1(O)C(=O)OCc2c1cc1n(c2=O)Cc2cc3c(NC(C)=O)c(O)ccc3nc2-1 | 8.59 | 61
39 | C=C(CC1(CC(=C)c2ccc(C(=O)O)cc2)C(=O)N(C)C(=O)N(C)C1=O)c1ccc(C(=O)O)cc1 | 37.7 | > 100
40 | O=c1[nH]c(-c2ccccn2)nc2sc3c(c12)CCCCCC3 | 84.6 | > 100
41 | CCC1(O)CN(CCOC)[C@H]2C[C@@H]1C(=O)c1[nH]c3ccccc3c12 (stereo partly drawn) |  | > 100
42 | C[C@]12CC[C@@H]3c4ccc(O)cc4CC[C@H]3[C@@H]1CC[C@@H]2NS(=O)(=O)c1ccc(-c2ccccc2)cc1 | 9.99 | > 100
43 | O=C(Nc1ccccc1)N1N=C(c2ccccc2)C1c1ccccc1 (stereo not drawn) |  | > 100
44 | COC1(OC)N=C(N)C2(C#N)/C(=N/N(C)C)CC(C)C12C#N (stereo not drawn) |  | > 100
45 | C=CC1(CCC(Br)C(C)(C)Cl)CO1 (stereo not drawn) |  | > 10
46 | O=C(O)CNC(=O)c1cccc2c(=O)c3ccccc3[nH]c12 |  | > 100
47 | c1ccc(COc2ncccc2C2SCCCS2)cc1 |  | > 100
48 | COc1cc(OC)c(/C=C/S(=O)(=O)Cc2ccc(OC)c(NCC(=O)O)c2)c(OC)c1 | 0.184 | > 100

From PubChem BioAssay (NCI)
